The assay concerns the target T1, vIRF4 (Kaposi's-sarcoma-associated-herpesvirus vIRF4), full length wild type (Kaposi's-sarcoma-associated-herpesvirus …, UniProt Q2HR73 1-911).
T1 sequence: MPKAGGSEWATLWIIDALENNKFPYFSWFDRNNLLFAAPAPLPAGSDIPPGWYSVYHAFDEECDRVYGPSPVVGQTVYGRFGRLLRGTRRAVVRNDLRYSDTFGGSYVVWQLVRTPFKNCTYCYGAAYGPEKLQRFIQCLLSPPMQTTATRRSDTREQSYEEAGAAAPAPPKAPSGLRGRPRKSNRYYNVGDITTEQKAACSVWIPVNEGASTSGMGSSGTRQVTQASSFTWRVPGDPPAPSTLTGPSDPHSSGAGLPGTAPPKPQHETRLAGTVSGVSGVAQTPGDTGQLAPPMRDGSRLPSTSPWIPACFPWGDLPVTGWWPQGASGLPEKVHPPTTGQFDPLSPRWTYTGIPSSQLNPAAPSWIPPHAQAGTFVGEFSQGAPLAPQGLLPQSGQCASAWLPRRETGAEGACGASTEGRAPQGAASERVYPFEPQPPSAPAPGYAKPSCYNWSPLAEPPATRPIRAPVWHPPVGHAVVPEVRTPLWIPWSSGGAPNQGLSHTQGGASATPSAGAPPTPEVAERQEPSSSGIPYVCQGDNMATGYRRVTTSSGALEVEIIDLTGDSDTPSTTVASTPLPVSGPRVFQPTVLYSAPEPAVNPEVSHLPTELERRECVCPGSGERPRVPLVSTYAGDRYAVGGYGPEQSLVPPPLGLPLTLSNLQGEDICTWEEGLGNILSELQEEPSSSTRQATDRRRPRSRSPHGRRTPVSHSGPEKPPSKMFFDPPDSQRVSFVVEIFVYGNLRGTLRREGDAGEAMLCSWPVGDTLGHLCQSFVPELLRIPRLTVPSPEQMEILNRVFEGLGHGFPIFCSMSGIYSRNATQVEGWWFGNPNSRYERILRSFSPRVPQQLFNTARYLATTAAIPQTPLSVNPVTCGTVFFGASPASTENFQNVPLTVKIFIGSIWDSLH
Put plainly: co-immunoprecipitation from transfected 293T cells, IP: V5, IB: Flag.

B1: Flag/HAUSP […] (enzyme)
single chain: not shown
In the case of B1, the binding result is reported as “binds”.

(Values after patent US20180201654A1 (UNIVERSITY OF SOUTHERN CALIFORNIA, published 2018).)
